Source: PubChem BioAssay AID686978 (National Center for Advancing Translational Sciences (NCATS), 2013)
“And” between values parts separate entries of the source, which are not always exact repeats. Equal entries are not always repeated. Among all 420,000 compounds or so, about 64,000 (15%) were called active. The inconclusive results got no clear call from the source; some entries with a clear call stand among them for comparison. The call rests on the fitted dose curve; in most records, active means well fitted inhibition curve with a large enough effect; inconclusive means small, poorly fitted or top-dose-only effect; inactive means flat fitted curve, though single readings scatter. No potency is given beside an inconclusive call; the fits are too rough.

Assay: qHTS for Inhibitors of human tyrosyl-DNA phosphodiesterase 1 (TDP1): qHTS in cells in absence of CPT; further: nearly all actives have a fitted effect of over 55% in size
Details: DT40 Tdp1-/- hTDP1 cells, no CPT, ATP luminescence, 48 h; activity change, negative = growth inhibition: at 46.2 µM (top of the series) unless noted
How it was run: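 DT40 Tdp1-/-;hTDP1 cells, no CPT (DMSO vehicle only), 400 cells/well; compounds pin-transferred; ≥48 hr, 37 °C; CellTiter-Glo 30 min RT dark, luminescence read.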
On the % scale 0 is the no-effect control and ±100 the full control effect; potency means the concentration at half of the fitted maximal effect; tags describe the fitted curve by direction and shape.

| Structure (SMILES) | activity change, negative = growth inhibition | Potency |
| --- | --- | --- |
| CCCN(C(=O)C1CCN(S(=O)(=O)c2ccc(OC)c(OC)c2)CC1)C1CCS(=O)(=O)C1 (configuration not stated) | inactive: 4.24% |  |
| O=C(C1CCN(S(=O)(=O)c2ccccc2F)CC1)N1CCCC1 | inactive: -17.6% |  |
| COc1cccc(CN2CCN(C(=O)c3cc(-c4ccccn4)nc4ccc(Cl)cc34)CC2)c1 |  | active: 18.4 µM |
| COc1cc2c(cc1NC(=O)c1cc(-c3ccccn3)nc3ccccc13)oc1ccccc12 |  | active: 20.6 µM |
| COc1cccc(C(=O)Nc2nc(-c3ccc4c(c3)OCO4)cs2)c1 |  | inconclusive [inhibitor, single point] |
| CC(C)Oc1ccc(S(=O)(=O)N2CCOCC2)cc1NC(=O)C(C)Oc1ccc(F)cc1 (configuration not stated) |  | inconclusive [inhibitor, single point] |
| O=C(CCc1ccccc1)N1N=C(c2ccncc2)CC1(O)C(F)(F)F (configuration not stated) |  | inconclusive [inhibitor, single point] |
| CCCCOc1ccc(C2=CSC3=NCCN23)cc1[N+](=O)[O-] |  | active: 29.1 µM |
| O=C(NCc1n[nH]c(=S)n1-c1cccc(C(F)(F)F)c1)c1ccco1 | inactive: 1.06% |  |
| CCn1nc(C)cc1C(=O)N1CCCC(C(=O)c2ccc(OC)cc2C)C1 (configuration not stated) |  | active: 9.2 µM |
| COc1ccc(NS(=O)(=O)c2cc(NC(=O)c3cccnc3Cl)ccc2N2CCCC2)cc1 |  | inconclusive [inhibitor, single point] |
| CC(Oc1ccc(F)cc1)C(=O)Nc1cc(S(=O)(=O)N2CCCCC2)ccc1N1CCN(C)CC1 (configuration not stated) |  | inconclusive [inhibitor, single point] |
| Cc1cccc(C(=O)n2nc(-c3cccnc3)nc2NCc2ccccc2)c1 | inactive: -21.9% |  |
| O=C(N[C@@H](Cc1ccccc1)C(=O)OCc1ccccc1)c1ccco1 |  | inconclusive [inhibitor, single point] |
| CC(=O)c1ccc2cc3c(cc2c1)OCO3 |  | inconclusive [inhibitor, single point] |
| Cc1ccc(C(=O)NCCc2ccc(S(N)(=O)=O)cc2)cc1-n1cnc2cccnc21 | inactive: -19.6% |  |
| CC1C(=O)CC2C3(C)CCC2(C(C)C(=O)O)C(=O)C13 (configuration not stated) | inactive: -9.52% |  |
| Cc1occc1C(=O)NNC(=S)NCc1ccc(Cl)cc1 |  | inconclusive [inhibitor, single point] |
| COCc1cc(C)nc(SCC[N+](C)(C)CC(=O)c2ccc(Br)cc2)c1C#N |  | inconclusive [inhibitor, partial curve] |
| COc1cc2c(cc1OC)CN(C(=O)COc1ccc(C)c(C)c1)CC2 |  | inconclusive [inhibitor, partial curve] |
| N#CC1=C(S)N=C(N)C(c2nc(-c3ccccc3)cs2)C12CCCC2 (configuration not stated) |  | inconclusive [inhibitor, single point] |
| N#Cc1c(N)sc2c1CCN(CCc1ccccc1)C2 |  | inconclusive [inhibitor, single point] |
| COc1ccc(NC(=O)CSCC(=O)N2CCN(C(=O)c3ccco3)CC2)cc1 | inactive: 12.1% |  |
| COc1ccc(CNc2nc(-c3ccccc3CN(C)C)nc3ccccc23)c(OC)c1 |  | active: 7.31 µM |

| Structure (SMILES) | activity change, negative = growth inhibition | Potency |
| --- | --- | --- |
| CC(C)C(C(=O)NCC1CCCO1)N(Cc1ccco1)C(=O)CNS(=O)(=O)c1ccccc1 (configuration not stated) | inactive: -14.9% |  |
| Cc1ccc(-c2c(C(=O)N/N=C/c3cccs3)nnn2-c2nonc2N)cc1 | inactive: -22.9% |  |
| COC(=O)c1c(NC(=O)Cc2coc3ccc(C(C)C)cc23)sc2c1CCC2 |  | inconclusive [inhibitor, single point] |
| CC1(C)NC(=O)N(CC(=O)OCC(=O)Nc2cc(S(=O)(=O)N3CCCCC3)ccc2Cl)C1=O |  | inconclusive [inhibitor, single point] |
| CCN1CCN(C(c2ccccc2)c2sc3nc(C)nn3c2O)CC1 (configuration not stated) | inactive: 9.1% |  |
| CC(=NNC(=S)Nc1ccc(C)cc1)c1ccccn1 |  | active: 0.0184 µM |
| O=C(CCCCn1c(=O)c2ccccc2n(CC(=O)Nc2ccc(F)cc2F)c1=O)NCCc1ccccc1 | inactive: -22.6% |  |
| CN(C)S(=O)(=O)N1CCN(c2ccc([N+](=O)[O-])c(N3CCOCC3)c2)CC1 |  | inconclusive [inhibitor, single point] |
| CCCn1c2ccccc2c2cnn(CC(=O)NCCc3ccc(OC)cc3OC)c(=O)c21 |  | inconclusive [inhibitor, single point] |
| CCN(CC)c1nn2c(=O)c(C(=O)NCc3ccc(F)cc3)cnc2s1 |  | inconclusive [inhibitor, single point] |
| Cc1nnc(SCC(=O)N/N=C/c2cc(Cl)c(O)c(Cl)c2)s1 | inactive: -4.87% |  |
| Cc1cccc(C)c1NC(=O)N1CC(C)OC(C)C1 (configuration not stated) | inactive: 19.8% |  |
| COc1cc(NC(=O)CN2C(=O)C(C)N(c3ccc(C)cc3)C2=O)cc(OC)c1 (configuration not stated) | inactive: -12% |  |
| CSc1nsc2nc(=O)c(/C=C3\C(C)=Nc4ccc(C)cc43)c(N)n12 |  | inconclusive [inhibitor, single point] |
| CCOc1ccc2ccccc2c1CNCCc1ccc(S(N)(=O)=O)cc1 |  | inconclusive [inhibitor, single point] |
| O=C(N/N=C/c1ccc(Cl)cc1)c1nc2ccc([N+](=O)[O-])cc2c(=O)[nH]1 |  | inconclusive [inhibitor, single point] |
| O=C(/C=C/c1ccc(-c2ccccc2[N+](=O)[O-])o1)c1ccco1 |  | inconclusive [inhibitor, single point] |
| CN(N)c1nc(-c2ccccc2)cc(-c2ccccc2)n1 |  | inconclusive [inhibitor, single point] |
| O=C(NNC(=O)c1ccccc1Br)c1ccncc1 | inactive: 23.6% |  |
| CC(C)C(=O)Nc1nc(-c2ccc(S(=O)(=O)N3CCOCC3)cc2)cs1 |  | inconclusive [inhibitor, single point] |
| CCNC(=O)Cc1ccc(NC(=O)N2CCCCc3ccccc32)cc1 | inactive: -10.5% |  |
| COC(=O)[C@@]12C[C@@H](CC(=O)NCCC(C)C)C(=O)N(Cc3ccc4c(c3)OCO4)C1=CCC(C)(C)C2 |  | active: 18.4 µM |
| CCC1C(=O)NCCN1C(=O)c1ccc2nc(Cc3cccc(Cl)c3)oc2c1 (configuration not stated) |  | inconclusive [inhibitor, single point] |
| O=C(c1ccc(OCCN2CCCCC2)cc1)c1c(-c2ccc(O)cc2)sc2cc(O)ccc12 |  | active: 16.8 µM |

| Structure (SMILES) | activity change, negative = growth inhibition | Potency |
| --- | --- | --- |
| O=C(O)CCC(=O)c1ccc2sc3ccccc3c2c1 | inactive: -0.345% |  |
| CN(Cc1ccccc1)c1nc(-c2ccc([N+](=O)[O-])cc2)nc2ccccc12 |  | inconclusive [inhibitor, single point] |
| CN(C)CCCOc1ccc(-c2ccc3nccn3c2)cn1 | inactive: -20.3% |  |
| OCCCNc1nc(-c2ccccc2)c2cc(Br)ccc2n1 |  | inconclusive [inhibitor, partial curve] |
| CCN1C(=NCc2cc(OC)c(OC)c(OC)c2)N[C@@H](c2cccc(C(F)(F)F)c2)C(C(=O)OC)=C1C | inactive: -27.6% |  |
| Cc1c(NC(=O)CSc2nc(-c3ccco3)cc(C(F)(F)F)n2)c(=O)n(-c2ccccc2)n1C | inactive: -6.03% |  |
| COc1cc(S(=O)(=O)N2CCC(c3nc4ccccc4s3)CC2)ccc1S(=O)(=O)N1CC(C)CC(C)C1 (configuration not stated) |  | inconclusive [inhibitor, single point] |
| Nc1c(N(Cc2ccccc2)C(=O)COc2cccc(Cl)c2)c(=O)[nH]c(=O)n1Cc1ccccc1 |  | inconclusive [inhibitor, single point] |
| O=C1c2ccccc2-c2n[nH]c3cccc1c23 |  | active: 5.96 µM and active: 10 µM and active: 21.1 µM |
| COc1cccc(-c2nccc(-n3ccnc3)n2)c1 |  | inconclusive [inhibitor, single point] |
| Cc1ccc(C)c(C(=O)OCC(=O)Nc2cccc(S(=O)(=O)NC3=NCCCCC3)c2)c1 |  | inconclusive [inhibitor, single point] |
| C=CCC[C@@H](Cc1ccc(F)cc1)C(=O)OC[C@H](Cc1c[nH]c2ccccc12)NC(=O)[C@@H](CC=C)CC(=O)N(CCO)Cc1ccccc1 |  | active: 16.4 µM |
| O=C(COc1ccccc1Cl)Nc1ccc(S(=O)(=O)N2CCOCC2)cc1 |  | inconclusive [inhibitor, partial curve] |
| NC(=O)C1CCN(C(=O)c2ccc(OCC(=O)Nc3cccc(C(F)(F)F)c3)cc2)CC1 |  | inconclusive [inhibitor, single point] |
| CC1CN(CCc2ccccc2)c2nc3c(c(=O)n(CC(N)=O)c(=O)n3C)n2C1 (configuration not stated) | inactive: 17.8% |  |
| CN(Cc1ccon1)C(=O)CCc1nnc(CCCCc2ccccc2)o1 | inactive: 12.1% |  |
| CN(C)/N=C/c1ccc(N2CCOCC2)cc1 | inactive: -0.0029% |  |
| Cc1ccccc1NC(=S)N(Cc1cccs1)C1CCCCC1 |  | active: 9.2 µM |
| FC(F)(F)c1ccc(/C=N/N2CCN(Cc3cccc4ccccc34)CC2)cc1 |  | inconclusive [inhibitor, single point] |
| Cc1ccc(NS(=O)(=O)c2c(C)noc2C)cc1 | inactive: 2.58% |  |
| Cc1cc(-c2nnc(CCC(=O)NC(C)(C)C34CC5CC(CC(C5)C3)C4)o2)no1 |  | inconclusive [inhibitor, single point] |
| OCCNc1cc(Cl)ncn1 | inactive: 16.3% |  |
| Cc1ccc(OCCNC(=O)CCNS(=O)(=O)c2ccc3ccccc3c2)cc1 |  | inconclusive [inhibitor, single point] |
| N/C(=N\OC(=O)CCC1CCCCC1)c1cccnc1 | inconclusive: -25.1% [inhibitor] |  |
